Molecules are shown by their SMILES. Over roughly 110,000 compounds, “z-score” has its median near -0.1; the highest 2% begin near 2. This is one part of the list. The source made the active and inactive calls.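 How the source made its calls: active means z-score in the third read window above 3 or below -3; inactive means the rest.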

The assay deals with Metabotropic glutamate receptor 8 (Rattus norvegicus) (UniProt P70579). The assay is described as follows: rat mGluR8 modulators via GIRK flux, primary screen, cell-based, thallium flux, HTS (AID 488969). To be noted: HEK293 rat mGluR8, GIRK (G protein-gated inwardly rectifying potassium channel) thallium flux, FluoZin2; at 10 µM; stronger effect = higher value; submaximal glutamate (EC20) added with thallium.
Sequence of UniProt P70579 (P70579 whole entry, looked up): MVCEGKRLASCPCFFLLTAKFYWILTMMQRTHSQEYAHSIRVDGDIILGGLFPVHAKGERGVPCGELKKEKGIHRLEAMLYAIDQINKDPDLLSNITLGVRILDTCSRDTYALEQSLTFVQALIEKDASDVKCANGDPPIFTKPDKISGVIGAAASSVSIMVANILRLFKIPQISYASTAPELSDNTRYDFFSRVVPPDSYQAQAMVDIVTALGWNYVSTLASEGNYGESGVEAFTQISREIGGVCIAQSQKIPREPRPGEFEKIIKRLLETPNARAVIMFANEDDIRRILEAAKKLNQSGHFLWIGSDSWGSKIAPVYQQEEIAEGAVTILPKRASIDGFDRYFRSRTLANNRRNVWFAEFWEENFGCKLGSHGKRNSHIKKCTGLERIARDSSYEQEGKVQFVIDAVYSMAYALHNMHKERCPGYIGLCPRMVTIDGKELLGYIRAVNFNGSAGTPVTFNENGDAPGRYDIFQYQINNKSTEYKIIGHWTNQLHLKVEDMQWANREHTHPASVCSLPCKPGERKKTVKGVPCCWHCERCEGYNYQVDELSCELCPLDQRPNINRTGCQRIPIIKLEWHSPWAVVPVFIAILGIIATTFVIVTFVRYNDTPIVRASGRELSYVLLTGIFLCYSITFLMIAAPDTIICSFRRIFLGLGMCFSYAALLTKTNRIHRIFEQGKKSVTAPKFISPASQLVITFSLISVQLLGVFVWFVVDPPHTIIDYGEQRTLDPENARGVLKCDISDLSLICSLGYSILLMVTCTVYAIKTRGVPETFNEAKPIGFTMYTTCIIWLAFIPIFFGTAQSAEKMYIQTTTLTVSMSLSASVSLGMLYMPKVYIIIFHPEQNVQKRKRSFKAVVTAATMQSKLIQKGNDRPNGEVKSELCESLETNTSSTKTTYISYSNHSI
As to `CC1C2CC(CC1(C)C)N(C(=O)Nc1ccc3nccnc3c1)C2` (centres undefined), the z-score was -0.155. As for `COc1ccc([C@H]2[C@@H](C#N)[C@H](C#N)N3CCCN23)cc1`, the z-score was -0.0861. Take `CCCC(=O)NC(=S)Nc1ccc(NC(=O)c2cccs2)cc1`: the z-score was -0.143. Regarding `COC(=O)c1cccc(NC(=O)c2onc3c2CCCC3)c1`, the z-score was -0.228. Turning to `CCCCn1nnnc1SCC(=O)c1cc(Cl)ccc1OC`, the z-score is -1.36. `CCCCNc1c(N2CCN(C(=O)OCC)CC2)c(=O)c1=O`: the z-score was found to be 1.06. `COc1ccc(CC(=O)NC(C)c2nnc(SCC(=O)Nc3nc(C)cs3)n2C)cc1` (centres undefined) yielded a z-score of 0.0325. Regarding `COC(=O)c1cc2c(=O)n3ccccc3nc2n(Cc2cccnc2)c1=N`, the z-score was 0.851. In turn, `CNCc1ccc(OCc2ccccc2)c(OC)c1` yielded a z-score of 0.83. `Cc1nnc(SCC(=O)NNC(=O)CC#N)[nH]c1=O` gave a z-score of 0.296. In turn, `CCC(C)NC(=O)C1CCC(=O)N(c2cc(OC)c(OC)c(OC)c2)C1c1ccc(OC)cc1` (centres undefined) yielded a z-score of 0.24. The compound `Cc1cc(Nc2nc3ccccc3nc2Cl)n(-c2ccccc2)n1` showed a z-score of 0.00239. As for `CCOC(=O)c1[nH]c2ccc(OC)cc2c1NC(=O)CCN1CCC(C)CC1`, the figure is -0.426.

`CCOC(=O)N1CCC(Nc2nc3ccccc3nc2NS(=O)(=O)c2ccc(Cl)cc2)CC1` displayed a z-score of -2.46. As for `O=C(Nc1ccccc1)c1ccc(NCCc2ccccc2)c([N+](=O)[O-])c1`, the figure is 0.249; as for `CCOC(=O)c1c(-c2ccccc2)nc2ccccn12`, -0.275. `COCCN1C=C(C(=O)OC)C(c2ccc3c(c2)OCO3)C(C(=O)OC)=C1`: the z-score was -0.336. `COc1cc(C(=O)NCc2nnc(SCC(=O)Nc3nc4ccccc4s3)o2)cc(OC)c1OC` yielded a z-score of -0.227. `COc1ccc(C(=O)C2CN(c3ccccc3)CC2c2ccc(Cl)cc2)cc1` (centres undefined) returned a z-score of 0.113.

In the case of `Cc1ccc(-n2c(Cc3cccn3C)nnc2SCC(=O)Nc2nnc(C)s2)cc1`, the z-score was 0.278. `CSc1nnc2n(C)c3c(c(=O)n12)C1(CCCC1)Cc1ccccc1-3` came in with a z-score of -0.325. As for `Cc1cc(C)n(CC(O)COc2ccccc2)n1` (centres undefined), the figure is 0.103. As for `N#Cc1ccc(N2C(=O)[C@@H]3C(C(=O)C(c4ccccc4)c4ccccc4)=NN[C@@H]3C2=O)cc1`, the z-score is -0.128.

The compound `COc1cc(NS(=O)(=O)c2ccc(C)c(C)c2)c(OC)cc1Cl` showed a z-score of 0.334. With `N#Cc1ccc(C(c2nnnn2C2CCCC2)N2CCC(Cc3ccccc3)CC2)cc1` (centres undefined), the z-score is -0.213. `CC(C)Oc1ccc(C(=O)NC2CCS(=O)(=O)C2)cc1` (centres undefined): the z-score was -0.104. Turning to `Cc1nn(-c2ccccc2)c(C)c1/C=N/NC(=O)c1cc(-c2cccc3ccccc23)n[nH]1`, the z-score was -0.481.

`CCN(CC)CCNC(=O)C(=O)NCC1OCCN1C(=O)c1ccc2c(c1)OCO2` (centres undefined) showed a z-score of -0.268.

As to `O=C(C[n+]1cccc(NC(=O)c2ccccc2)c1)c1ccc(NC(=O)c2ccccc2)cc1`, the z-score was -0.0503.

`Cc1ccc(-c2nnc(N(C)C(=O)c3ccccn3)s2)cn1` registered a z-score of 0.498. With `CC(C)Cc1nn2c(=O)cc(O)nc2s1`, the z-score was -0.352. Turning to `CCOc1ccc(N=Nc2c(=O)[nH]n3c(=O)cc(C)[nH]c23)cc1`, the z-score is -0.63.

For `COc1ccc(NC(=O)[C@@H](NC(=O)c2ccccc2)C(C)C)cc1S(=O)(=O)N1CCCCC1`, the z-score was -0.331. Compound `COc1cc(CNc2ccc(CNc3ncn[nH]3)cc2)cc(Cl)c1OCc1ccccc1` returned a z-score of -0.0655. On to `CCOC(=O)CC1=C(C(=O)OCC)C(c2ccncc2)C(C#N)=C(N)O1` (centres undefined), for which the z-score was -0.0524.

For `CCOC(=O)c1ccc(NS(=O)(=O)c2ccc3[nH]c(=O)[nH]c3c2)cc1`, the z-score amounted to 0.861.

For the compound `COc1ccc(/C=N/Nc2nc(N3CCCC3)nc(N3CCCC3)n2)cc1O`, the z-score was -2.08. As for `CNC(=O)NC(=O)C(C)OC(=O)c1cc2c(s1)CCCCC2` (centres undefined), the figure is -0.628; as for `COc1ccc(C(C)C)cc1S(=O)(=O)N1CCN(C)CC1`, -1.09. For the compound `Cc1ccc(C)n1-c1sc2c(c1C#N)CCCC2`, the z-score is -0.0485. Turning to `Cc1ccc(C)n1-c1ccc(-n2cnnn2)cc1`, the z-score is -0.313.

In turn, `O=C(c1ccccc1)c1ccc(OCC(O)CN2CCCCC2)cc1` (centres undefined) came in with a z-score of 2.13. The figure for `O=C(NCc1ccco1)c1cc(-c2cccnc2)nc2ccc(Cl)cc12` is -1.71; for `CCCOCC1CC2(SC(=Nc3ccc(C)cc3)NC2=O)C(=O)O1` (centres undefined) it is 0.399. Turning to `CC(C)CNC(=O)c1ccccc1NC(=O)Nc1ccccc1`, the z-score is 0.337.

In the case of `COC(=O)c1ccc(/C=C/C(=O)c2ccc(OC)cc2)cc1`, the z-score was -0.32.

As to `Cc1ccc(C2C3=C(CCCC3=O)OC3=C2C(=O)CCC3)cc1`, the z-score was -0.121. Regarding `Cc1ccc(C(=O)CCC(=O)Nc2cccc(C(F)(F)F)c2)cc1C`, the z-score stood at 0.0595.

For the compound `Cc1nc2c(cc(Oc3ccc(S(=O)(=O)N4CCOCC4)cn3)c3ccsc32)s1`, the z-score was -0.255. On to `COc1cc(C(=O)Nc2ccc(N3CCOCC3)cc2)ccc1OCc1c(C)noc1C`, for which the z-score was -0.221. In turn, `CS(=O)(=O)Oc1ccc(/C=N/NC(=O)c2ccncc2)cc1` came in with a z-score of -0.147. Compound `Cn1c(N)c(C(=O)COC(=O)c2ccc(Br)o2)c(=O)n(C)c1=O` came in with a z-score of -0.0397.

The compound `COc1ccc2cc3c(N)nn(C(=O)Cc4ccc(Cl)cc4)c3nc2c1` showed a z-score of -0.0242. In turn, `CCCc1[nH]n(-c2nc3ccccc3s2)c(=O)c1C=NCC(C)C` came in with a z-score of 0.0416. `C/C(=N\NC(=O)c1ccccc1)c1ccc(NC(=O)c2cccs2)cc1` returned a z-score of -0.203. `CCCCNC(=O)CC1SC(=NCC)N(CC)C1=O` (centres undefined) gave a z-score of 0.267. As for `CC(=O)Nc1ccc(SC(C)C(=O)NC(N)=O)cc1` (centres undefined), the figure is 0.219.

In turn, `Cc1cc(Cl)ccc1OCC(=O)NCCCN1CCOCC1` showed a z-score of -0.323. `O=C(CCCn1c(=S)[nH]c2ccc(Br)cc2c1=O)NCC1CCCO1` (centres undefined): the z-score is 0.917. `Cc1cc(C)n(C(=O)c2ccc(C)c(F)c2F)n1`: the z-score is -0.238. `CCN(CC)c1ccc2cc(S(=O)(=O)c3ccc(C)cc3)c(=O)oc2c1` came in with a z-score of -0.154. `CN(C)CCNC(=O)C(C(=O)c1ccccc1)n1ccccc1=O` (centres undefined) registered a z-score of -0.0773.

Regarding `O=C(NCCCN1CCCC1)c1ccc(CSCc2cccc(Cl)c2)o1`, the z-score was active: 3.42.

`COc1ccc(C(=O)c2ccc(N(C)C)cc2)c2ccccc12` returned a z-score of -0.189. `CC(=N\Nc1ccccc1)/C(=N/O)C(=O)Nc1ccccc1` displayed a z-score of -0.203. Compound `COc1ccc(CN2C(=O)C(O)(CC(=O)c3c(C)n[nH]c3C)c3ccccc32)cc1OC` (centres undefined) yielded a z-score of -0.52. Consider `Cc1ccc(OC(F)F)c(NC(=O)Nc2cccc(C(F)(F)F)c2)c1`, for which the z-score turned out to be 0.759.

`N#CC1(C#N)CC(C=O)=C(N)C1(C#N)CC(=O)C12CC3CC(CC(C3)C1)C2` (centres undefined) returned a z-score of -0.368. `Cc1ccc(-n2nc3ccc(NC(=O)c4ccco4)cc3n2)cc1` registered a z-score of 0.46. With `Fc1cccc2sc(Nc3nnc(-c4ccccc4)o3)nc12`, the z-score was active: 17.1. Compound `Oc1ccc(C2=Nn3c(nnc3-c3ccco3)SC2)cc1O` yielded a z-score of -0.407. For the compound `Cc1nc2ccc(NC(=O)C(F)(F)F)cc2o1`, the z-score is 0.0859. Compound `Cc1cc(C)cc(C(=O)N2CCN=C2SCc2ccc([N+](=O)[O-])cc2)c1` displayed a z-score of -0.286. Take `C=CCn1c(CNC(=O)c2ccccc2C)nnc1SCC(=O)NC1CCCC1`: the z-score is 0.32.

Compound `Cc1cc(C)c(S(=O)(=O)N2C=CC(C(F)(F)F)=NCC2)c(C)c1` yielded a z-score of -0.196. The compound `CCC(C)NS(=O)(=O)c1ccc(S(=O)(=O)N(CC(=O)Nc2ccccc2)CC2CCCO2)cc1` (centres undefined) returned a z-score of -0.398. As for `CCn1c(Cc2ccccc2)nnc1SCC(=O)Nc1ccc(OC)cc1`, the figure is 0.447. The figure for `CCOC(=O)N1CCN(C(=O)CN(c2ccc(C)c(C)c2)S(=O)(=O)c2ccccc2)CC1` is -0.169; for `CCCc1nc2ccc(NC(=O)NCCC(=O)OCC)cc2c(=O)n1Cc1ccc(Cl)cc1` it is -0.126. The figure for `Cc1cc(NS(=O)(=O)Cc2ccccc2)no1` is -0.315; for `COc1cc2c(cc1OC)-c1nc3ccccc3c(=O)n1C(C)(C)C2` it is -0.179. Consider `CCOCc1nnc(NC(=O)c2c(OC)cccc2OC)s1`, for which the z-score was 0.0658.

For the compound `COc1ccc(/C=C2\CCCC3C2=NN(C(=O)CSc2ncn[nH]2)C3c2ccc(OC)cc2)cc1` (centres undefined), the z-score was -0.45. Regarding `COc1ccc(N2CCN(C(CNC(=O)c3ccc4c(c3)OCO4)c3cccnc3)CC2)cc1` (centres undefined), the z-score is -0.438. `Cc1ccccc1CSCC(=O)Nc1c(C)n(C)n(-c2ccccc2)c1=O` showed a z-score of -0.0609. The figure for `CCN(CC)S(=O)(=O)c1ccc(NC2c3ccccc3C(=O)N2CCN2CCOCC2)cc1` (centres undefined) is -0.251. For `COC(=O)NCC(c1ccco1)N1CCN(c2ccc(F)cc2)CC1` (centres undefined), the z-score is -0.385. `Cc1ccc(NC(=O)c2ccc(S(=O)(=O)N3CCOCC3)cc2)nc1` gave a z-score of -0.416. Take `CCOC(=O)C1=C(C)NC(SCC(N)=O)=C(C#N)C1c1ccccc1` (centres undefined): the z-score was -0.401.

`COC(=O)C1=C(C)N(C(C)c2ccccc2)C(=O)C1` (centres undefined) showed a z-score of -0.331. Compound `COC(=O)c1cccc(NC(=O)C2COc3ccccc3O2)c1` (centres undefined) came in with a z-score of -0.323. In turn, `Cc1cc(C)cc(NC(=S)Nc2ccccn2)c1` yielded a z-score of 1.28. In turn, `O=C(CSc1nc(-c2ccco2)cc(C(F)(F)F)n1)N1CCSCC1` gave a z-score of -0.262.

The compound `COc1cc(OC)cc(-n2nnnc2SCC(=O)NC2CCCC2)c1` showed a z-score of -0.287. Compound `O=C(N/N=C\c1ccc(Sc2ccccn2)o1)c1cccc(F)c1` had a z-score of -0.471. For `CCc1ccccc1NC(=S)/N=C(\N)Nc1nc(C)c2cc(C)ccc2n1`, the z-score is 1.03. The compound `C=CCn1c(C)c(C(C)=O)c(N2CCN(c3ccccc3)CC2)nc1=S` showed a z-score of -0.187. In turn, `O=C1NC2(CCCCC2)C(=O)N1/N=C/c1ccc(O)cc1O` gave a z-score of -0.127. As for `CC1=Nn2c(nnc2-c2cccs2)SC1`, the figure is -0.211. For the compound `COc1ccc(S(=O)(=O)N(CCCN2CCCC2=O)Cc2cc3c(C)cc(C)cc3[nH]c2=O)cc1`, the z-score was -0.276.

As for `NNC(=S)NCc1cccnc1`, the z-score is -0.257. In turn, `Cc1nc(SCC(=O)NCc2ccco2)[nH]c(=O)c1C` had a z-score of 0.115.

For `O=C(O)C1OC2OC3(CCCCC3)OC2C2OC3(CCCCC3)OC12` (centres undefined), the z-score was -0.0598. `COc1ccccc1-c1c(C)nn2c(N3CCC(C(N)=O)CC3)cc(C)nc12`: the z-score was -1.24. `COc1ccc(/C=N/NC(=S)NC2CCS(=O)(=O)C2)cc1OC` (centres undefined): the z-score was -0.0973. For `Cc1cc(C)c(C#N)c(SCc2cc3c(cc2Cl)OCO3)n1`, the z-score came out at 0.461. `COCCn1nnnc1CN1C2CCCC1CC(NC(C)=O)C2` (centres undefined) gave a z-score of -0.112. On to `O=C(COc1ccc(N2C(=O)c3ccccc3C2=O)cc1)c1ccccc1`, for which the z-score was -0.0529.

The compound `CCCCOc1ncnc2c1[nH]c1ccc(OCC)cc12` showed a z-score of -0.0441.

The record behind these values is PubChem BioAssay AID488969 (Vanderbilt High Throughput Screening Facility, 2010).
